In all, about 33,000 sequences were measured (“E-score (-0.5 to 0.5)”: median about -0.054, highest 2% from about 0.39 on). Some of the results follow.
molecular target: Ylr278c (UniProt Q05854); assay: PBM E-score (8-mer binding enrichment) (E-score (-0.5 to 0.5)); higher = stronger / more preferred TF binding; most listed sequences are background and not binding sites; conditions: protein concentration: 200 nM; construct: GST-DNA-binding domain
Protocol: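 Universal 'all 10-mer' protein binding microarrays (Agilent AMADID 015681) probed with GST-tagged S. cerevisiae TFs (full-length or DBD) made by in vitro transcription/translation (PURExpress), about 100-200 nM. Bound TF was detected with fluorescent anti-GST. Each ungapped 8-mer (which stands for itself and its reverse complement) is scored by the PBM enrichment score (E-score), a modified Wilcoxon-Mann-Whitney statistic from -0.5 to +0.5, computed with the Universal PBM Analysis Suite. Scale: above 0.35 generally sequence-specific binding.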

Row | Sequence | PBM E-score
1 | CGCAGAAG | -0.0179
2 | ATACCGGA | 0.405
3 | AGGCCGGG | 0.258
4 | AGATCTCC | 0.255
5 | GGGTCGAA | -0.103
6 | GCCTTGTA | -0.174
7 | CTATCGCA | -0.0611
8 | ATGTGACA | -0.204
9 | CGTAGGTA | -0.0121
10 | CCCAATCA | -0.0999
11 | AAACTCAC | -0.0848
12 | ACGACTGC | -0.202
13 | GAGCCACA | -0.0707
14 | CGCCAAAG | -0.0321
15 | ATAGATTG | 0.0539
16 | CTGTGCTA | -0.0973
17 | TTGCCAAA | -0.0917
18 | AACCCTGA | -0.0547
19 | TACAAACA | -0.107
20 | CATGCCTA | -0.261
21 | CCCTCGCC | -0.246
22 | ATCGATTG | -0.029
23 | AACGCCAG | 0.017
24 | GCAAGGGC | -0.211
25 | CCGGCACC | 0.374

Row | Sequence | PBM E-score
26 | CTTATGCC | 0.0545
27 | CACGCGCG | 0.119
28 | CATCCCGG | 0.342
29 | ACCTGTAG | -0.144
30 | GTGGCAGA | -0.213
31 | ATGTGCCG | 0.132
32 | ACAAGAAG | 0.08
33 | ATAAGAGG | 0.107
34 | GAACATGA | -0.0476
35 | CCGCTTAC | 0.0207
36 | CGAAATTA | 0.136
37 | CCGTGACA | 0.238
38 | AGGCTTTG | -0.154
39 | CGGGTGGC | 0.148
40 | GATCTGTA | 0.0224
41 | AGGTCATG | -0.141
42 | GTATCTGA | -0.143
43 | AGGTCAGA | -0.108
44 | ATGCTCGG | 0.169
45 | TTAGTCAA | -0.189
46 | CTCCCGGC | 0.356
47 | AAACGTCT | -0.269
48 | CGTTGTCA | -0.0949
49 | AAGTGGAT | -0.0978
50 | CCGAGGCC | 0.245

Row | Sequence | PBM E-score
51 | CAACTGTC | -0.136
52 | ATACTTCC | 0.109
53 | GACTGGGC | -0.179
54 | GAATACTC | 0.0192
55 | ATACGAGA | -0.327
56 | ACGTGGGG | -0.0524
57 | CGATCTGC | 0.19
58 | GCGAGGTA | -0.105
59 | GTCGATGA | -0.0803
60 | AGTCAGCA | -0.285
61 | ACAGGGGA | -0.2
62 | CCTTGTCC | 0.131
63 | TACGTGGA | 0.143
64 | CGTTGAAG | -0.201
65 | CTCTGCTC | -0.114
66 | AGCTTAAT | 0.0164
67 | CCTCTAGA | -0.203
68 | ATACTTGC | -0.253
69 | GCGAGTAC | 0.00812
70 | AAATGAAG | -0.0897
71 | AACGCGCA | -0.0645
72 | ACTGCTGA | -0.237
73 | ACAAACCA | -0.244
74 | ATACCCTG | -0.08
75 | AGAATAAG | -0.0356

Row | Sequence | PBM E-score
76 | CCTGTAGA | -0.111
77 | GCCATCTA | -0.111
78 | AGATCAAA | 0.0214
79 | CTAAGCCA | -0.24
80 | CTGAGTAA | -0.228
81 | ATAATAAC | -0.0184
82 | ACTCCACG | 0.0682
83 | AGTCCCAG | -0.0903
84 | AAAAAATT | 0.0162
85 | CCGTTAAC | 0.178
86 | GGGCCGCA | 0.257
87 | AGTTGGAC | -0.146
88 | CTCCTTGA | -0.11
89 | ACCAAGCT | -0.287
90 | CATGTTGG | -0.227
91 | GGCAATCA | 0.122
92 | CACCAGGG | -0.298
93 | ACGAGTAT | -0.192
94 | GCGGAGGA | 0.406
95 | AAACGGAA | 0.306
96 | ACGCGTGG | 0.0294
97 | CCAGACGC | -0.184
98 | CAACTAAC | 0.0622
99 | CCTATGGA | -0.124
100 | CCTGGTGC | -0.136

Row | Sequence | PBM E-score
101 | AACCTAAC | 0.056
102 | AAGGTGGG | -0.161
103 | TGCCCAAA | -0.203
104 | CCAGATAA | -0.0845
105 | GGCATTTA | 0.0632
106 | ATGTGTAC | -0.196
107 | AGCACTAC | -0.291
108 | ATGAGCTG | -0.0713
109 | ACCCTGCG | -0.0187
110 | AAGTGCCT | -0.328
111 | CAACCGGC | 0.27
112 | ATTAGCTA | -0.108
113 | ATTCGCCC | 0.156
114 | ATAGCGCC | 0.0683
115 | CAAGCAGA | -0.121
116 | AGTACGAG | 0.104
117 | AACGGCGT | 0.123
118 | CGACTTAG | -0.168
119 | GCTAACTA | 0.0503
120 | GCCCCTTA | -0.0129
121 | ACTCTTCG | -0.0141
122 | GCCCTAAA | -0.115
123 | ACCAAACG | -0.147
124 | GAGTTTAC | 0.122
125 | ACTCCAGT | -0.00604

Row | Sequence | PBM E-score
126 | CTACTGTC | -0.123
127 | ACTAACAT | -0.105
128 | GAGGTCCC | 0.0277
129 | AATTATCG | 0.104
130 | TGCGCACA | 0.143
131 | TACTAGTA | -0.138
132 | ATATTACC | -0.0424
133 | GAGTTCGA | -0.0113
134 | AATCGGGG | 0.338
135 | AGAAGAAA | -0.0189
136 | AATATAGC | -0.164
137 | CGCGGGGC | 0.302
138 | GCTAGCAA | -0.0145
139 | CAGCCGCC | 0.283
140 | ACTAGAGC | -0.128
141 | ACATAGGA | -0.154
142 | GCTCTCGA | -0.201
143 | CCGACTCA | 0.199
144 | CAAGAGTA | -0.128
145 | GAGACCAC | -0.211
146 | CGATCGGA | 0.44
147 | AGTTTGTA | 0.0205
148 | CGATTACG | -0.0311
149 | CGTATTCA | -0.0647
150 | ATATCGAC | 0.0774

Row | Sequence | PBM E-score
151 | ATACCAGC | -0.104
152 | AGGTTGAT | -0.185
153 | ATTTGAAG | 0.102
154 | GACCTACC | 0.00069
155 | TATAGAGA | -0.354
156 | CGCGACTC | 0.104
157 | CGTGACAC | 0.0891
158 | AGCAGATG | -0.335
159 | CCATTTCA | -0.127
160 | AATCGAAA | -0.14
161 | CTCATGTA | -0.0184
162 | GCAACGAC | -0.0348
163 | AAAGCGGG | 0.112
164 | CCGCAAAA | 0.242
165 | ATTAGACC | -0.134
166 | GTGGGAAA | -0.0315
167 | CAACGACC | -0.0111
168 | AGGACCCC | 0.06
169 | CGGGCCCA | 0.091
170 | CCGATTCA | 0.0742
171 | CCGGGTAC | 0.265
172 | CTCACCCA | -0.0261

Reference: the supplement of paper PMC3334620
